In PMC9911399, “Two distinct binding modes provide the RNA-binding protein RbFox with extraordinary sequence specificity”:
Positions count from the first letter of the chain named. This is one part of the list.

T1: RBFOX1 RRM (Homo sapiens, UniProt Q9NWB1 109-208)
T1 sequence: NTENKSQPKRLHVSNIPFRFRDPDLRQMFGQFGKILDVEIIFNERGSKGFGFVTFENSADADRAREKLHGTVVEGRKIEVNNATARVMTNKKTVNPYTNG

B1: CCUCUUA (DNA:RNA)
RNA: GGGAGACCGGAAUUCAGAUUGUCCCCUCUUAUUAAAUCCCGUCGUAGCCACCA
DNA 1: CAATCTGAATTCCGGTCTCCC
DNA 2: TGGTGGCTACGACGGGATT
B2: GCUCCAA (DNA:RNA)
RNA: B1 RNA with C25G, U29C, U30A
DNA 1: CAATCTGAATTCCGGTCTCCC
DNA 2: TGGTGGCTACGACGGGATT
B3: GUAAGCC (DNA:RNA)
RNA: GGGAGACCGGAAUUCAGAUUGUCCGUAAGCCUUAAAUCCCGUCGUAGCCACCA
DNA 1: CAATCTGAATTCCGGTCTCCC
DNA 2: TGGTGGCTACGACGGGATT
B4: ACCCCGC (DNA:RNA)
RNA: B1 RNA with C25A, U27C, U29C, U30G, A31C
DNA 1: CAATCTGAATTCCGGTCTCCC
DNA 2: TGGTGGCTACGACGGGATT
B5: CUAAGUA (DNA:RNA)
RNA: B3 RNA with G25C, C30U, C31A
DNA 1: CAATCTGAATTCCGGTCTCCC
DNA 2: TGGTGGCTACGACGGGATT
B6: CUGUCCC (DNA:RNA)
RNA: B3 RNA with G25C, A27G, A28U, G29C
DNA 1: CAATCTGAATTCCGGTCTCCC
DNA 2: TGGTGGCTACGACGGGATT
B7: AUUUCAC (DNA:RNA)
RNA: B3 RNA with G25A, A27U, A28U, G29C, C30A
DNA 1: CAATCTGAATTCCGGTCTCCC
DNA 2: TGGTGGCTACGACGGGATT
B8: CUCGGCG (DNA:RNA)
RNA: B3 RNA with G25C, A27C, A28G, C31G
DNA 1: CAATCTGAATTCCGGTCTCCC
DNA 2: TGGTGGCTACGACGGGATT
B9: UAGCUGG (DNA:RNA)
RNA: B1 RNA with C25U, C26A, U27G, U30G, A31G
DNA 1: CAATCTGAATTCCGGTCTCCC
DNA 2: TGGTGGCTACGACGGGATT
B10: AUCGGAA (DNA:RNA)
RNA: B3 RNA with G25A, A27C, A28G, C30A, C31A
DNA 1: CAATCTGAATTCCGGTCTCCC
DNA 2: TGGTGGCTACGACGGGATT
B11: UGGGAGA (DNA:RNA)
RNA: B1 RNA with C25U, C26G, U27G, C28G, U29A, U30G
DNA 1: CAATCTGAATTCCGGTCTCCC
DNA 2: TGGTGGCTACGACGGGATT
B12: CGGUUUG (DNA:RNA)
RNA: B1 RNA with C26G, U27G, C28U, A31G
DNA 1: CAATCTGAATTCCGGTCTCCC
DNA 2: TGGTGGCTACGACGGGATT
B13: CGCGAUG (DNA:RNA)
RNA: B1 RNA with C26G, U27C, C28G, U29A, A31G
DNA 1: CAATCTGAATTCCGGTCTCCC
DNA 2: TGGTGGCTACGACGGGATT
B14: AGCUGUC (DNA:RNA)
RNA: B3 RNA with G25A, U26G, A27C, A28U, C30U
DNA 1: CAATCTGAATTCCGGTCTCCC
DNA 2: TGGTGGCTACGACGGGATT
B15: UCUGAAU (DNA:RNA)
RNA: B1 RNA with C25U, C28G, U29A, U30A, A31U
DNA 1: CAATCTGAATTCCGGTCTCCC
DNA 2: TGGTGGCTACGACGGGATT
B16: CGAUAAU (DNA:RNA)
RNA: B1 RNA with C26G, U27A, C28U, U29A, U30A, A31U
DNA 1: CAATCTGAATTCCGGTCTCCC
DNA 2: TGGTGGCTACGACGGGATT
B17: AAGGAUG (DNA:RNA)
RNA: B1 RNA with C25A, C26A, U27G, C28G, U29A, A31G
DNA 1: CAATCTGAATTCCGGTCTCCC
DNA 2: TGGTGGCTACGACGGGATT
B18: GUCAUUG (DNA:RNA)
RNA: B3 RNA with A27C, G29U, C30U, C31G
DNA 1: CAATCTGAATTCCGGTCTCCC
DNA 2: TGGTGGCTACGACGGGATT
B19: AAGUCAA (DNA:RNA)
RNA: B1 RNA with C25A, C26A, U27G, C28U, U29C, U30A
DNA 1: CAATCTGAATTCCGGTCTCCC
DNA 2: TGGTGGCTACGACGGGATT
B20: UGCAGCU (DNA:RNA)
RNA: B3 RNA with G25U, U26G, A27C, C31U
DNA 1: CAATCTGAATTCCGGTCTCCC
DNA 2: TGGTGGCTACGACGGGATT
B21: UGUCACG (DNA:RNA)
RNA: B1 RNA with C25U, C26G, U29A, U30C, A31G
DNA 1: CAATCTGAATTCCGGTCTCCC
DNA 2: TGGTGGCTACGACGGGATT
B22: GAGACCG (DNA:RNA)
RNA: B3 RNA with U26A, A27G, G29C, C31G
DNA 1: CAATCTGAATTCCGGTCTCCC
DNA 2: TGGTGGCTACGACGGGATT
B23: GCGGACA (DNA:RNA)
RNA: B1 RNA with C25G, U27G, C28G, U29A, U30C
DNA 1: CAATCTGAATTCCGGTCTCCC
DNA 2: TGGTGGCTACGACGGGATT
B24: AUUGUCG (DNA:RNA)
RNA: B1 RNA with C25A, C26U, C28G, U30C, A31G
DNA 1: CAATCTGAATTCCGGTCTCCC
DNA 2: TGGTGGCTACGACGGGATT
B25: UACAACC (DNA:RNA)
RNA: B3 RNA with G25U, U26A, A27C, G29A
DNA 1: CAATCTGAATTCCGGTCTCCC
DNA 2: TGGTGGCTACGACGGGATT
B26: GCGUCCA (DNA:RNA)
RNA: B1 RNA with C25G, U27G, C28U, U29C, U30C
DNA 1: CAATCTGAATTCCGGTCTCCC
DNA 2: TGGTGGCTACGACGGGATT
B27: UUCGGGC (DNA:RNA)
RNA: B3 RNA with G25U, A27C, A28G, C30G
DNA 1: CAATCTGAATTCCGGTCTCCC
DNA 2: TGGTGGCTACGACGGGATT
B28: UUGUGUG (DNA:RNA)
RNA: B3 RNA with G25U, A27G, A28U, C30U, C31G
DNA 1: CAATCTGAATTCCGGTCTCCC
DNA 2: TGGTGGCTACGACGGGATT
B29: UGAUCGU (DNA:RNA)
RNA: B3 RNA with G25U, U26G, A28U, G29C, C30G, C31U
DNA 1: CAATCTGAATTCCGGTCTCCC
DNA 2: TGGTGGCTACGACGGGATT
B30: AGUAUGU (DNA:RNA)
RNA: B1 RNA with C25A, C26G, C28A, U30G, A31U
DNA 1: CAATCTGAATTCCGGTCTCCC
DNA 2: TGGTGGCTACGACGGGATT
B31: GUGCUAA (DNA:RNA)
RNA: B1 RNA with C25G, C26U, U27G, U30A
DNA 1: CAATCTGAATTCCGGTCTCCC
DNA 2: TGGTGGCTACGACGGGATT

Each binder was assayed against T1, RBFOX1 RRM (assay: EMSA; HiTS-Eq, 1 nM pool, 10 min; buffer printed only for the single-RNA assays: 10 mM Tris pH 7.5, 150 mM NaCl, 3.4 mM EDTA, 0.001% NP-40, 30 C). Settings: tags: His6 N-terminal (pET28a); label: 5' 32P.
Procedure, shortened: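 These values rest on relative association constants, computed from read-count changes of each RNA species versus the control reaction and normalised to the cognate motif. Reads came from free RNA recovered by 8% native PAGE after purified RbFox RRM (wild type or mutant) at increasing concentrations was equilibrated for 10 min in 50 µL with 1 nM of a 5′-radiolabelled pool with 7 randomized nucleotides and DNA-annealed flanks.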
For B1, the binding signal was 0.00531 KA relative to UGCAUGU. B2 was tested, and the binding signal was 0.00872 KA relative to UGCAUGU. With B3 the binding signal was 0.0103 KA relative to UGCAUGU. For B4, the binding signal was 0.00028 KA relative to UGCAUGU. In the case of B5, the binding signal is reported as 0.00744 KA relative to UGCAUGU. With B6 the binding signal was 0.00986 KA relative to UGCAUGU. In the case of B7, the binding signal is reported as 0.00279 KA relative to UGCAUGU. With B8 the binding signal was 0.0159 KA relative to UGCAUGU. B9 was tested, and the binding signal was 0.018 KA relative to UGCAUGU. In the case of B10, the binding signal is reported as 0.00417 KA relative to UGCAUGU. B11 was tested, and the binding signal was 0.025 KA relative to UGCAUGU. For B12, the binding signal was 0.026 KA relative to UGCAUGU. For B13, the binding signal was 0.0159 KA relative to UGCAUGU. With B14 the binding signal was 0.0125 KA relative to UGCAUGU. In the case of B15, the binding signal is reported as 0.0102 KA relative to UGCAUGU. In the case of B16, the binding signal is reported as 0.00218 KA relative to UGCAUGU. With B17 the binding signal was 0.0141 KA relative to UGCAUGU. For B18, the binding signal was 0.0126 KA relative to UGCAUGU. B19 was tested, and the binding signal was 0.00252 KA relative to UGCAUGU. B20 was tested, and the binding signal was 0.0159 KA relative to UGCAUGU. B21 was tested, and the binding signal was 0.016 KA relative to UGCAUGU. With B22 the binding signal was 0.00974 KA relative to UGCAUGU. B23 was tested, and the binding signal was 0.00658 KA relative to UGCAUGU. With B24 the binding signal was 0.0184 KA relative to UGCAUGU. For B25, the binding signal was 0.00313 KA relative to UGCAUGU. In the case of B26, the binding signal is reported as 0.0119 KA relative to UGCAUGU. In the case of B27, the binding signal is reported as 0.0034 KA relative to UGCAUGU. In the case of B28, the binding signal is reported as 0.0403 KA relative to UGCAUGU. For B29, the binding signal was 0.0285 KA relative to UGCAUGU. In the case of B30, the binding signal is reported as 0.016 KA relative to UGCAUGU. In the case of B31, the binding signal is reported as 0.0105 KA relative to UGCAUGU.
